Laboratory results published in PubChem BioAssay AID504339 (National Center for Advancing Translational Sciences (NCATS), 2011).
Among all 390,000 compounds or so, about 17,000 (4.4%) were called active. The inconclusive results got no clear call from the source; some entries with a clear call stand among them for comparison. Calls come from the whole dose curve; as a rule, active = well fitted inhibition curve with a large enough effect; inconclusive = small, poorly fitted or top-dose-only effect; inactive = no such curve, though single readings can be large or run the other way. A potency beside an inconclusive call is a rough fit, not a confirmed value.

Biological target: Lysine-specific demethylase 4A (Homo sapiens) (UniProt O75164)
Assay: qHTS Assay for Inhibitors of JMJD2A-Tudor Domain; note: nearly all actives have a fitted effect of over 50% in size
Details: AlphaScreen JMJD2A-Tudor / H3K4me3 peptide binding; activity change, negative = inhibition: at 114 µM (top of the series)
% is set by controls: 0 for no effect and ±100 for the full control effect; potency is the fitted concentration of half-maximal effect; tags give direction and shape of the fitted curve.

Chain of UniProt O75164 (O75164 whole entry, looked up, the tested form may be a part): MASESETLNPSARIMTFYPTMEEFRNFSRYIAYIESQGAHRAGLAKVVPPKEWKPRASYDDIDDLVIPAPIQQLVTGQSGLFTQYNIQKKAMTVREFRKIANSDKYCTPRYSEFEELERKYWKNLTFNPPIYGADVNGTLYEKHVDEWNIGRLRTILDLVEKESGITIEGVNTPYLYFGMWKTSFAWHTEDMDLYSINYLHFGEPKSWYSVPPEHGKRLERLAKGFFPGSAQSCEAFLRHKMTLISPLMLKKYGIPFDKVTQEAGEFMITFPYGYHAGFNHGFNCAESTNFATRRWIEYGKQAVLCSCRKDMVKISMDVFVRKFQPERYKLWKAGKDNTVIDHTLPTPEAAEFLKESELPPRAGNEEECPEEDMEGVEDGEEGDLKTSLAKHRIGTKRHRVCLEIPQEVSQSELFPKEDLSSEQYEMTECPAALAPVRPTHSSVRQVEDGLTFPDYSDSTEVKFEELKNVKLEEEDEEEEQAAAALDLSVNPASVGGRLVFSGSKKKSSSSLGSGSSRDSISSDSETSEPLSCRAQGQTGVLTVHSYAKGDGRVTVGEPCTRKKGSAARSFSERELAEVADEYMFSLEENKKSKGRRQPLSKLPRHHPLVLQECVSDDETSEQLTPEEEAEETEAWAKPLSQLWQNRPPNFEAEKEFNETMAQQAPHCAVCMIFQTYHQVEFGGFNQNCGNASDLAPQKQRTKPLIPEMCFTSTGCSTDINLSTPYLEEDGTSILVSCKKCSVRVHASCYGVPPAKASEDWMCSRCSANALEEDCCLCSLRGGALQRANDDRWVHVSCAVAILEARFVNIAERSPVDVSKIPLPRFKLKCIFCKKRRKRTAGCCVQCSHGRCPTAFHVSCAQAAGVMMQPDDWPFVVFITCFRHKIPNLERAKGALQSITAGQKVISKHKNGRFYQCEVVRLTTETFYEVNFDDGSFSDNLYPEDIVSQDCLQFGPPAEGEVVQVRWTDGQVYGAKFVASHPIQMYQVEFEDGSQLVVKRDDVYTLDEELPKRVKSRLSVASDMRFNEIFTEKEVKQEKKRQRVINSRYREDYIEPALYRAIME

Potency, inactive:
CC(=O)/C(C#N)=C1\NC(=O)C(Cc2cc(Cl)ccc2Cl)S1 (configuration not stated), CCOC(=O)c1ccc(NC2SC(=O)N(Cc3cccc(C(=O)O)c3)C2=O)cc1 (configuration not stated), CCc1nc2cc3sc(CC)nc3cc2s1, CCc1cc2c(SC(C)C(=O)NC3CCCC3)ncnc2s1 (configuration not stated), C=C(C)Cn1c(=O)c2c(nc3n2CCN3c2ccc(F)cc2)n(C)c1=O, CC12CCC(=O)N1C(C(=O)Nc1ccc(Br)cc1Cl)CS2 (configuration not stated), COc1ccc(NC(=O)c2c(NC(=O)CCC(=O)O)sc(-c3ccccc3)c2C)cc1, O=C(COc1ccc(S(=O)(=O)N2CCOCC2)cc1Cl)NC1CC1, O=C(NC1CC1)C1CC(=O)N(c2cccc(Cl)c2)C1 (configuration not stated), Cc1cc(C)nc(SCCC(=O)N2CCOCC2)n1, Cc1ccc(C(=O)OCc2nnc(-c3ccccc3)o2)cc1S(=O)(=O)N1CCOCC1, O=C(NCc1ccccc1)Nc1cccn(Cc2ccccc2)c1=O

Potency, active:
COc1ccc(OC)c(-c2nnc3n2N=C(c2ccccc2OC)CS3)c1 79.4 µM, COc1ccc(CC(=O)NCc2n[nH]c(=S)n2-c2cccc(C)c2)cc1 7.94 µM, Cc1cc(NS(=O)(=O)c2ccccc2)cc(Cl)c1O 89.1 µM, COCCNCCCOc1ccc(C)cc1Br 20 µM, CC(C)C1Cc2c(C#N)c(N)sc(=S)c2CO1 (configuration not stated) 50.1 µM

Potency, inconclusive:
Cc1cc(C(=O)N/N=C/c2ccc(-c3ccc([N+](=O)[O-])cc3Cl)o2)n[nH]1 39.8 µM [inhibitor, full curve, poor fit], Cc1nnc(SC(C)C(=O)NC2CCCCC2)[nH]c1=O (configuration not stated) 15.8 µM [inhibitor, full curve, poor fit], O=C(O)COc1ccc(/C=C/c2ccc3cccc([N+](=O)[O-])c3n2)cc1 50.1 µM [inhibitor, partial curve], Cc1ccnc(Nc2nc(-c3ccc(O)cc3)cs2)c1 89.1 µM [inhibitor, single point], COc1ccc(-c2c3c(=O)n(C)c(=O)n(C)c3cn2-c2cc(OC)ccc2OC)cc1 50.1 µM [inhibitor, partial curve], CC[C@H](C)[C@H]1CNC(=O)C(=O)N1CC1CCN(CCc2ccccc2)CC1 89.1 µM [inhibitor, single point], NS(=O)(=O)c1ccc2nc(NC(=O)c3ccc4ncsc4c3)sc2c1 28.2 µM [inhibitor, full curve], S=C1NCCc2ccc(Cl)cc2C1c1ccccc1 (configuration not stated) 79.4 µM [inhibitor, partial curve], COc1ccc(OC)c(/C=N/Nc2nncn2/N=C/c2cc(OC)ccc2OC)c1 79.4 µM [inhibitor, partial curve], Cc1ccc(Nc2c(-c3ccco3)nc3ccccn23)cc1 44.7 µM [inhibitor, partial curve], [O-]/C(=C(\C(=S)NCc1ccccc1)[n+]1ccccc1)c1ccc(Cl)s1 56.2 µM [inhibitor, partial curve], O=C(CNC(=O)c1cccc(OC(F)F)c1)OCc1cc(=O)n2cc(Br)ccc2n1 10 µM [inhibitor, full curve, poor fit], CC(C)NC(=O)CC(=O)N/N=C/c1ccc(F)cc1 35.5 µM [inhibitor, single point], O=C(C(Cc1ccccc1)n1cccc1)N1CCN(Cc2ccccc2)CC1 (configuration not stated) 56.2 µM [inhibitor, partial curve], O=C(Nc1nccs1)c1cnccn1 2.51 µM [inhibitor, full curve, poor fit], O=C(Cc1ccc(Br)cc1)Nc1ccccc1N1CCCC1 28.2 µM [inhibitor, partial curve, poor fit], Cc1ccccc1C(=O)NC1CCN(CC(=O)Nc2nccs2)CC1 14.1 µM [inhibitor, partial curve], COc1ccc(C(=O)NC(=S)NCc2ccco2)cc1Br 56.2 µM [inhibitor, partial curve], Cn1c(SCc2ccc(F)cc2)nnc1-c1ccccn1 50.1 µM [inhibitor, partial curve], O=C1c2ccccc2NC(c2cn[nH]c2-c2ccc(Cl)cc2)N1O (configuration not stated) 28.2 µM [inhibitor, single point], O=C(COc1ccc2c3c(c(=O)oc2c1)CCC3)N1CCN(c2ccc(F)cc2)CC1 44.7 µM [inhibitor, partial curve], COc1cc(C(c2nnnn2C2CCCC2)N2CCc3ccccc3C2)ccc1O (configuration not stated) 7.08 µM [inhibitor, single point], Cc1ccc(-c2nc(Nc3cccc(C)c3)sc2CC(=O)O)cc1 56.2 µM [inhibitor, partial curve], CSc1ncc(CN2CCN(C3CCN(C(C)C)CC3)C(CCO)C2)cn1 (configuration not stated) 39.8 µM [inhibitor, single point], CCCCN1C(C(=O)c2ccccc2)=C(OC(C)=O)c2ccccc2S1(=O)=O 56.2 µM [inhibitor, partial curve], CCOC(=O)c1cnc(COc2ccc(OC)cc2)[nH]c1=O 56.2 µM [inhibitor, partial curve], O=C1OC(c2cccs2)=N/C1=C\c1ccc(-c2ccccc2Cl)o1 56.2 µM [inhibitor, partial curve], CC(NC(=O)C1CCN(c2nc3ccccc3nc2C(F)(F)F)CC1)c1ccccc1 (configuration not stated) 11.2 µM [inhibitor, full curve], Cc1ccc2[nH]c3c(N4CCN(Cc5ccccc5)CC4)ncnc3c2c1 7.94 µM [inhibitor, partial curve]

Activity change, negative = inhibition, inactive:
COC(=O)c1[nH]c(=O)c2ccccc2c1O -22.6% [at 11.4 µM]
